Data on 29 compounds can be found in PMC6919601, “Identification of Plasmodium dipeptidyl aminopeptidase allosteric inhibitors by high throughput screening” (PLoS ONE, 2019).

Hit rate of the full screen: of about 110,000 compounds, about 230 (0.21%) showed an effect of 50% or more. The list shows a part of the results.
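Note: 30 min substrate incubation versus DMSO and 10 µM JCP410 controls.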

For the assay, the target named is DPAP1 (Plasmodium falciparum, UniProt Q8IIJ9). Put plainly: primary screen, percent inhibition; read by cleavage of a fluorogenic dipeptide substrate; higher = more effect of the substance. Also on record: species or system P. falciparum D10 trophozoite lysates; single well.
DPAP1, sequence (Q8IIJ9 whole entry, looked up): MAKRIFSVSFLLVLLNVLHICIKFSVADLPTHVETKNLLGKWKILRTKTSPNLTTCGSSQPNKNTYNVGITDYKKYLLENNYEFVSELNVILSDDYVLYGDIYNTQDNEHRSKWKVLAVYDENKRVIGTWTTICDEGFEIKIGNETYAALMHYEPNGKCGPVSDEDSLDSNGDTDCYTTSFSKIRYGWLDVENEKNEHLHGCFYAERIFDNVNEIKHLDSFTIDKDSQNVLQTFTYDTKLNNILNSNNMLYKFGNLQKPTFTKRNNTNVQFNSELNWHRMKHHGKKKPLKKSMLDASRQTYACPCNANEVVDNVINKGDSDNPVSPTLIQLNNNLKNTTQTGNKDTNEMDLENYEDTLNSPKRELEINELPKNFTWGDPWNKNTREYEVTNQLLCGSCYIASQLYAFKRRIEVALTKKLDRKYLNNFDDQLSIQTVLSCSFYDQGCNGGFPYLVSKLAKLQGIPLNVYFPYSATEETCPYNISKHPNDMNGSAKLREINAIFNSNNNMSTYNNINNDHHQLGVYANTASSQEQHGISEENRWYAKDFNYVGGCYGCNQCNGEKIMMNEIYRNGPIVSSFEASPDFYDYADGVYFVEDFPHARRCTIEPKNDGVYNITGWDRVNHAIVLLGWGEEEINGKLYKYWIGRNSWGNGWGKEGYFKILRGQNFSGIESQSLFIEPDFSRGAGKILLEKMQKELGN
Turning to `O=C(O)CCCNC1=NC2(CCCC2)Cc2ccccc21`, the “% Inhibition @ 10 uM” value is -7.14%.

As to `C=CCSc1nc(-c2ccccc2)ccc1C#N`, the “% Inhibition @ 10 uM” value is 6.56%.

Turning to `O=C(O)CC1C(=O)OCN1C(=O)OCc1ccccc1` (centres unmarked), the “% Inhibition @ 10 uM” value is given as 5.59%.

Turning to `CCCc1[nH]nc2c1C(c1c(OC)cccc1OC)C(C#N)=C(N)O2` (centres unmarked), the “% Inhibition @ 10 uM” value is -0.988%.

As for `COc1ccccc1C1CC(=O)NC(SCC(=O)Nc2ccccc2)=C1C#N` (centres unmarked), the “% Inhibition @ 10 uM” value is 2.69%.

Consider `CC1=C(C#N)C(c2ccccc2C(F)(F)F)C2=C(O)CCCC2=N1` (centres unmarked), for which the “% Inhibition @ 10 uM” value came out at 1%.

For the compound `CC(C)C(NC(=O)CN(c1ccc2c(c1)OCCO2)S(=O)(=O)c1ccccc1)C(C)C`, the “% Inhibition @ 10 uM” value is listed as -0.872%.

On to `Cn1c(SCC(=O)NCCCN2CCOCC2)nc2ccccc2c1=O`, for which the “% Inhibition @ 10 uM” value came out at 3.93%.

As for `COc1ccc(-n2ncc3c2ncn2nc(-c4ccccc4Cl)nc32)cc1`, the “% Inhibition @ 10 uM” value is -1.11%.

Consider `N#CCNC(=O)C(Cc1cc(Cl)cc(Cl)c1)NC(=O)c1ccc(Cl)cc1` (centres unmarked), for which the “% Inhibition @ 10 uM” value is given as 17%.

As to `CCOc1ccc(C(=O)N(Cc2cccs2)C2CCS(=O)(=O)C2)cc1` (centres unmarked), the “% Inhibition @ 10 uM” value is given as -4.18%.

For `O=C(O)CCSc1ccc([N+](=O)[O-])cc1`, the “% Inhibition @ 10 uM” value was -5.62%.

As for `C/C(=C\c1ccccc1)c1nc2c(=O)n(C)c(=O)nc-2n(C)n1`, the “% Inhibition @ 10 uM” value is reported as 2.19%.

As for `N#CC1=C(N)Oc2cc(N)ccc2C1c1ccccc1F` (centres unmarked), the “% Inhibition @ 10 uM” value stood at 0.687%.

`COc1ccc(-[n+]2cc(O)on2)cc1`: the “% Inhibition @ 10 uM” value stood at 1.72%.

As to `CC(C)NC(=O)c1sc2nc(-c3cccs3)cc(-c3ccc(F)cc3)c2c1N`, the “% Inhibition @ 10 uM” value is -3.5%.

Turning to `O=C(CN1C(=O)c2ccccc2S1(=O)=O)NCCSCc1ccc(Cl)c(Cl)c1`, the “% Inhibition @ 10 uM” value amounted to 5.01%.

Take `Cc1ccc(S(=O)(=O)N(CCC#N)C2CCCCC2)c2nsnc12`: the “% Inhibition @ 10 uM” value worked out at 0.266%.

For the compound `CCC(C)NC(=O)c1cc(C2CC2)[nH]n1` (centres unmarked), the “% Inhibition @ 10 uM” value was 1.41%.

With `Cc1nn(C)c(C)c1CN(C)S(=O)(=O)c1ccc2ccccc2c1`, the “% Inhibition @ 10 uM” value amounted to 0.528%.

As for `Cn1c(=O)c2c(nc(NCCCn3ccnc3)n2Cc2ccc(F)cc2)n(C)c1=O`, the “% Inhibition @ 10 uM” value was found to be 17.1%.

Turning to `O=C(CCNS(=O)(=O)c1ccc2nc(O)ccc2c1)NC1CCCc2ccccc21` (centres unmarked), the “% Inhibition @ 10 uM” value is given as -2.26%.

With `O=C(NCCSc1nnnn1-c1ccccc1)c1ccccc1`, the “% Inhibition @ 10 uM” value was -2.85%.

On to `Cc1nnc(-c2cccc3ccccc23)o1`, for which the “% Inhibition @ 10 uM” value is on record as -0.216%.

As to `Cc1nc(S)c(C#N)c(C)c1C(=O)Nc1ccccc1`, the “% Inhibition @ 10 uM” value amounted to 2.01%.

With `COc1ccccc1NC(=O)c1ccccc1F`, the “% Inhibition @ 10 uM” value was -3.82%.

As to `COc1ccc(C(=O)Nc2cnc3ccccn3c2=O)cc1`, the “% Inhibition @ 10 uM” value was -7.15%.

For the compound `COc1cc2c(cc1OC)CN(Cc1ccc3ccccc3c1)CC2`, the “% Inhibition @ 10 uM” value is recorded as -1.98%.

On to `CC(=O)Nc1ccc(S(=O)(=O)Nc2cccc(NC(=O)C(C)(C)C)c2)cc1`, for which the “% Inhibition @ 10 uM” value is on record as -1.95%.
